# Measured values taken from the supplement of paper PMC7826260.
# The list shows a part of the results. Each Rep nickase domain was tested in vitro on the same pool of single strands (1 h at 37 °C, 3 µM enzyme); the outer parts of the 90-letter strands are left off. The score is log2 (uncut reads / reads without enzyme); strong cutting gives strongly negative numbers. There is no active / inactive call. The scaling is to total reads; where an enzyme cuts many sequences, the uncut ones exceed 0.
# Columns and labels:
# Experiment in all cases: uncleaved DNA left, log2 of reads against the no-enzyme library (log2 ratio); higher = less cleavage (more negative = more Rep cleavage of the k-mer); sequences stand for … in CTCGTCCG…ACCGGAGA
# [1] = tested on: T1, Rep nickase domain of Muscovy duck circovirus
# T1 sequence (Rep 1-111, printed without the tag): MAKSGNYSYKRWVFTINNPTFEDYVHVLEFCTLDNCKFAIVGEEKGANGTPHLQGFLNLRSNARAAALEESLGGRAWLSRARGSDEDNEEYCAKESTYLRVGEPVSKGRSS
# Protocol: (§1)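 A pool of 90-nt single-stranded DNAs with seven random bases just before the constant AC of the nick site (name = the seven bases) was cut by 3 µM recombinant His6-SUMO-tagged Rep nickase domain (300 nM DNA, 50 mM HEPES pH 8.0, 50 mM NaCl, 1 mM MnCl2, 1 h, 37 °C, three replicates). Uncut DNA was amplified and sequenced.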
# [2] = tested on: T2, Rep nickase domain of banana bunchy top virus
# T2 sequence (Rep 1-94, printed without the tag): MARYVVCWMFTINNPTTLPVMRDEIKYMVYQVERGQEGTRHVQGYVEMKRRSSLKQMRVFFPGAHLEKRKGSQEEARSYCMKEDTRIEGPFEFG
# Protocol: as §1
# [3] = tested on: T3, Rep nickase domain of cabbage leaf curl virus
# T3 sequence (Rep 1-116, printed without the tag): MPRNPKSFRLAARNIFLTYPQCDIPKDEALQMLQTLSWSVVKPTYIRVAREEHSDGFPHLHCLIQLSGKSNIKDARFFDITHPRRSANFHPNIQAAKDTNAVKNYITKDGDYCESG
# Protocol: as §1
# [4] = tested on: T4, Rep nickase domain of chickpea chlorotic dwarf virus
# T4 sequence (Rep 1-124, printed without the tag): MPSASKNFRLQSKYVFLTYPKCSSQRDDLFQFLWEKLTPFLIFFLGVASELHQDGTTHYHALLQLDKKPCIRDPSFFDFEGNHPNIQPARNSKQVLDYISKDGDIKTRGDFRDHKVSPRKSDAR
# Protocol: as §1
# [5] = tested on: T5, Rep nickase domain of faba bean necrotic yellows virus
# T5 sequence (Rep 1-98, printed without the tag): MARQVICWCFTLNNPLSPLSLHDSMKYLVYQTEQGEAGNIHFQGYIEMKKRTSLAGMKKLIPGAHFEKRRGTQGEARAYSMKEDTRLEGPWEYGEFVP
# Protocol: as §1
# [6] = tested on: T6, Rep nickase domain of maize striate mosaic virus
# T6 sequence (Rep 1-117, printed without the tag): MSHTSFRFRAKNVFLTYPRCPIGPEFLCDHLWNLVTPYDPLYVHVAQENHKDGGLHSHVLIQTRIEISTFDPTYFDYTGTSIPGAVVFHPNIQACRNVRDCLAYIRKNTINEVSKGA
# Protocol: as §1
# [7] = tested on: T7, Rep nickase domain of porcine circovirus 2
# T7 sequence (Rep 2-116, printed without the tag): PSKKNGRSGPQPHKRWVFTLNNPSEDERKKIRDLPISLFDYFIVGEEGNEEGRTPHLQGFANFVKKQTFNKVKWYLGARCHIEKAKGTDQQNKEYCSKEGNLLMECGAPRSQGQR
# Protocol: as §1
# [8] = tested on: T8, Rep nickase domain of tomato golden mosaic virus
# T8 sequence (Rep 1-124, printed without the tag): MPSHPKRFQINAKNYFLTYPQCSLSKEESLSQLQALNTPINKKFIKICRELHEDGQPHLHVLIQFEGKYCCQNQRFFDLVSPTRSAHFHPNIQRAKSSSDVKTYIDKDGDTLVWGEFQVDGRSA
# Protocol: as §1
# [9] = tested on: T9, Rep nickase domain of tomato yellow leaf curl virus
# T9 sequence (Rep 1-136, printed without the tag): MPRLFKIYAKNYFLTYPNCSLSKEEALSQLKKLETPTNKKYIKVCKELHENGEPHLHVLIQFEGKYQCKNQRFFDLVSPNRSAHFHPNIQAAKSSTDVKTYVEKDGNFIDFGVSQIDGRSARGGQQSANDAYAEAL
# Protocol: as §1
# [10] = tested on: T10, Rep nickase domain of wheat dwarf virus
# T10 sequence (Rep 1-137, printed without the tag): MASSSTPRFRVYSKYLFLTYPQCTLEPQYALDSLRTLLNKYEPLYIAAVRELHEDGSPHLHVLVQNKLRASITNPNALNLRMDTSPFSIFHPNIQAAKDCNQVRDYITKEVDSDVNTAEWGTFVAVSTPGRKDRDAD
# Protocol: as §1
Sequence,uncleaved DNA left (log2) [1],uncleaved DNA left (log2) [2],uncleaved DNA left (log2) [3],uncleaved DNA left (log2) [4],uncleaved DNA left (log2) [5],uncleaved DNA left (log2) [6],uncleaved DNA left (log2) [7],uncleaved DNA left (log2) [8],uncleaved DNA left (log2) [9],uncleaved DNA left (log2) [10]
GTACGAA,0.114,0.0604,0.309,0.768,-0.00231,1.33,0.184,0.131,0.111,0.0928
GTCTCCG,0.06,0.0493,0.188,0.557,-0.0288,1.11,0.0488,0.11,-0.0493,0.0312
ACGGAAA,-0.0426,0.0167,0.0205,0.317,-0.0311,-0.173,0.153,0.00208,-0.133,-0.0296
AATCCGG,-0.133,0.0868,0.468,1.25,0.0449,1.33,0.0532,0.0672,-0.13,0.00994
AGCAAAT,0.198,0.166,0.084,0.241,0.000626,0.463,-0.0959,0.0104,0.108,0.128
CCGACTC,-0.0121,-0.135,-0.0543,0.27,-0.00882,0.706,-0.24,-0.137,-0.11,-0.109
GAATTCA,-0.141,0.0535,-0.191,-0.826,-0.0625,0.501,-0.596,0.00139,0.0611,-0.0494
ATGTAGA,-0.0029,0.00349,-0.306,-0.456,-0.0295,-1.05,0.0208,-0.0857,-0.0349,-0.0637
ATAGGAC,0.00523,0.0067,0.236,1.21,-0.0243,1.18,0.164,0.104,-0.101,0.1
ACTTTAC,-0.1,-0.104,-0.469,-2.09,-0.12,-1.17,-0.0203,-0.167,-0.274,-0.12
GATCATC,0.0367,0.0927,0.369,1.06,-0.0274,1.18,0.141,-0.123,0.181,0.282
GATTAGT,-2.52,-2.67,0.12,-0.359,-0.0495,-0.0524,-2.82,0.0475,0.151,0.11
AGGACTA,0.0638,0.168,0.523,1.49,-0.109,2.04,0.0926,0.11,-0.0594,0.151
GTGAGCC,-0.0648,0.0756,0.133,0.856,-0.00998,1.63,0.0178,0.0451,0.0453,0.0787
CTCTAAT,-2.37,-0.264,-0.12,-1.34,-0.00225,-0.57,-3.73,-0.0402,-0.124,-0.0987
GGTTCGC,-0.0394,-0.14,0.158,0.573,-0.0817,0.512,0.0157,-0.0788,-0.0261,-0.0214
CCGTCGC,0.017,0.0852,-0.333,-0.404,0.0124,-0.512,0.193,0.0725,0.0555,-0.0748
TGTACGG,0.081,0.115,0.512,1.65,0.0538,2.16,0.219,0.14,0.0334,0.153
ATCCCGG,0.0905,0.0475,0.414,1.24,0.0469,1.15,0.0555,0.153,-0.0314,0.109
AAAGAAC,-0.00871,0.0548,-0.255,-0.212,0.0222,-0.472,0.163,0.0495,-0.11,0.0492
TTATGGA,0.12,0.0252,0.0628,0.074,0.0966,-0.4,0.0572,0.123,0.00355,0.0865
AGTCATC,-0.0825,0.0967,0.254,0.53,-0.117,-0.136,-0.166,-0.0374,0.0408,0.142
ACCTACA,-0.046,0.0344,-0.379,-2.53,0.0216,-0.804,-0.16,0.14,0.0371,-0.0181
AACAAAG,0.0363,-0.0167,-0.614,-0.316,0.0408,-1.1,0.243,0.015,0.0383,-0.167
ATTCGAA,-0.00171,-0.0884,-0.219,-0.516,-0.0618,-1.06,-0.11,-0.0485,-0.0329,-0.13
CCTTACC,-0.189,0.0215,-0.286,-2.27,-0.0351,-0.613,-0.914,0.022,0.0731,0.00727
ACCACGT,0.0203,-0.126,0.0143,-0.36,-0.0777,-0.622,0.0885,-0.0317,-0.0471,-0.0925
CCAGAGC,0.0354,0.0913,-0.467,-0.503,0.089,-0.896,0.0981,0.0139,0.0761,-0.036
GTGTGCT,-0.226,-0.145,0.0498,0.34,-0.203,0.376,-2.13,-0.0952,-0.0763,-0.209
GGAGCGC,-0.0472,0.00934,0.0617,0.388,0.00245,0.211,0.112,0.0793,0.00494,-0.0342
